This is one part of the list. Most values come without repeats; read them as rough.
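Further: cells treated in 1,536-well plates, then fixed and DAPI-stained, with nuclei counted from automated high-throughput microscope images.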

This assay deals with A375. The assay is described as follows: cell count relative to DMSO control; melanoma cells; higher = more viable cells. The following applies: library dose: standard library concentration; 72 h.
`NC1(c2ccc(-c3nc4ccn5c(=O)[nH]nc5c4cc3-c3ccccc3)cc2)CCC1` + O=C(Nc1ccccc1)c1cc([N+](=O)[O-])ccc1Cl [GW9662] (first compound 2 µM, partner dose 10 µM) had a cell count of 129%. The result for `C=C(c1ccc(C(=O)O)cc1)c1cc2c(cc1C)C(C)(C)CCC2(C)C` [Bexarotene] + O=C(CCCCCCC(=O)Nc1ccccc1)NO [vorinostat] (first compound 10 µM, partner dose 0.4 µM) reads 87.3%; that for `CCCS(=O)(=O)Nc1ccc(F)c(C(=O)c2c[nH]c3ncc(Cl)cc23)c1F` + O=C1NC(=O)/C(=C/c2ccc(-c3ccc(F)cc3O)o2)S1 [AS252424] (first compound 0.4 µM, partner dose 5 µM), 87.9%. `NC1(c2ccc(-c3nc4ccn5c(=O)[nH]nc5c4cc3-c3ccccc3)cc2)CCC1` + O=C(O)C(=O)Nc1sc2c(c1C(=O)O)CCNC2 [TCS401] (first compound 2 µM, partner dose 8.33333 µM) registered a cell count of 136%. On to `CN(c1ncccc1CNc1nc(Nc2ccc3c(c2)CC(=O)N3)ncc1C(F)(F)F)S(C)(=O)=O` + CC(=O)c1c(C)c2cnc(Nc3ccc(N4CCNCC4)cn3)nc2n(C2CCCC2)c1=O [palbociclib] (first compound 0.4 µM, partner dose 0.2 µM), for which the cell count worked out at 48.9%. As to `C=C(c1ccc(C(=O)O)cc1)c1cc2c(cc1C)C(C)(C)CCC2(C)C` [Bexarotene] + CCCCCCCCCCCC1=C(O)C(=O)C=C(O)C1=O [Embelin] (first compound 10 µM, partner dose 6 µM), the cell count amounted to 127%. In the case of `CN(c1ncccc1CNc1nc(Nc2ccc3c(c2)CC(=O)N3)ncc1C(F)(F)F)S(C)(=O)=O` + COc1ccc(-c2ccc3c(N4CCOCC4)nc(N4C[C@@H](C)O[C@@H](C)C4)nc3n2)cc1CO [KU0063794] (first compound 0.4 µM, partner dose 0.1 µM), the cell count was determined as 84%. In turn, `CN(c1ncccc1CNc1nc(Nc2ccc3c(c2)CC(=O)N3)ncc1C(F)(F)F)S(C)(=O)=O` + COC(=O)c1sccc1S(=O)(=O)Nc1ccc(Nc2ccccc2)cc1OC [GSK0660] (first compound 0.4 µM, partner dose 5 µM) showed a cell count of 67.5%. Compound `NC1(c2ccc(-c3nc4ccn5c(=O)[nH]nc5c4cc3-c3ccccc3)cc2)CCC1` + O=c1cc(-c2cccc3c2Sc2ccccc2S3)oc(N2CCOCC2)c1 [KU55933] (first compound 2 µM, partner dose 5 µM) yielded a cell count of 128%. The result for `CN(c1ncccc1CNc1nc(Nc2ccc3c(c2)CC(=O)N3)ncc1C(F)(F)F)S(C)(=O)=O` + CCCCCCCCCCCC1=C(O)C(=O)C=C(O)C1=O [Embelin] (first compound 0.4 µM, partner dose 6 µM) reads 80.6%.

`CN(c1ncccc1CNc1nc(Nc2ccc3c(c2)CC(=O)N3)ncc1C(F)(F)F)S(C)(=O)=O` + COc1cc2ncnc(Nc3ccc(Oc4ccccc4)cc3)c2cc1OC [SrcI1] (first compound 0.4 µM, partner dose 10 µM) gave a cell count of 115%. The result for `CS(=O)(=O)c1ccc(C(=O)Nc2ccc(Cl)c(-c3ccccn3)c2)c(Cl)c1` [vismodegib] + CCN(CC)CCCCNc1ncc2cc(-c3cc(OC)cc(OC)c3)c(NC(=O)NC(C)(C)C)nc2n1 [PD173074] (first compound 5 µM, partner dose 0.5 µM) reads 125%; that for `C=C(c1ccc(C(=O)O)cc1)c1cc2c(cc1C)C(C)(C)CCC2(C)C` [Bexarotene] + Cn1nnc2c(C(N)=O)ncn2c1=O [temozolomide] (first compound 10 µM, partner dose 10 µM), 92.4%.

For `NC1(c2ccc(-c3nc4ccn5c(=O)[nH]nc5c4cc3-c3ccccc3)cc2)CCC1` + CCN(CC)CCCCNc1ncc2cc(-c3cc(OC)cc(OC)c3)c(NC(=O)NC(C)(C)C)nc2n1 [PD173074] (first compound 2 µM, partner dose 0.5 µM), the cell count was found to be 106%. `CN(c1ncccc1CNc1nc(Nc2ccc3c(c2)CC(=O)N3)ncc1C(F)(F)F)S(C)(=O)=O` + O=C(O)C(=O)Nc1sc2c(c1C(=O)O)CCNC2 [TCS401] (first compound 0.4 µM, partner dose 8.33333 µM) displayed a cell count of 147%. Next, `CN(c1ncccc1CNc1nc(Nc2ccc3c(c2)CC(=O)N3)ncc1C(F)(F)F)S(C)(=O)=O` + COc1ccc(COc2ccc(Cc3cnc(N)nc3N)cc2OC)cc1 [GW2580] (first compound 0.4 µM, partner dose 5 µM): 80.8%.

As to `CN(c1ncccc1CNc1nc(Nc2ccc3c(c2)CC(=O)N3)ncc1C(F)(F)F)S(C)(=O)=O` + CCN(CC)CCCCNc1ncc2cc(-c3cc(OC)cc(OC)c3)c(NC(=O)NC(C)(C)C)nc2n1 [PD173074] (first compound 0.4 µM, partner dose 0.5 µM), the cell count stood at 79.8%. Take `NC1(c2ccc(-c3nc4ccn5c(=O)[nH]nc5c4cc3-c3ccccc3)cc2)CCC1` + c1cc(-c2cnn3cc(-c4ccc(OCCN5CCCCC5)cc4)cnc23)ccn1 [Dorsomorphin] (first compound 2 µM, partner dose 2 µM): the cell count turned out to be 95.7%. `C=C(c1ccc(C(=O)O)cc1)c1cc2c(cc1C)C(C)(C)CCC2(C)C` [Bexarotene] + c1cc(-c2cnn3cc(-c4ccc(OCCN5CCCCC5)cc4)cnc23)ccn1 [Dorsomorphin] (first compound 10 µM, partner dose 2 µM): the cell count is 104%. Regarding `CS(=O)(=O)c1ccc(C(=O)Nc2ccc(Cl)c(-c3ccccn3)c2)c(Cl)c1` [vismodegib] + O=C(O)C(=O)Nc1sc2c(c1C(=O)O)CCNC2 [TCS401] (first compound 5 µM, partner dose 8.33333 µM), the cell count is 175%. Regarding `CN(c1ncccc1CNc1nc(Nc2ccc3c(c2)CC(=O)N3)ncc1C(F)(F)F)S(C)(=O)=O` + N#Cc1c(O)c2c(-c3ccc(-c4ccccc4O)cc3)csc2[nH]c1=O [A769662] (first compound 0.4 µM, partner dose 10 µM), the cell count was 85.3%. The compound `CN(c1ncccc1CNc1nc(Nc2ccc3c(c2)CC(=O)N3)ncc1C(F)(F)F)S(C)(=O)=O` + O=S(=O)(c1ccccc1)N(CC(F)(F)F)c1ccc(C(O)(C(F)(F)F)C(F)(F)F)cc1 [T0901317] (first compound 0.4 µM, partner dose 7 µM) returned a cell count of 67.6%.

In turn, `C=C(c1ccc(C(=O)O)cc1)c1cc2c(cc1C)C(C)(C)CCC2(C)C` [Bexarotene] + COc1ccc(COc2ccc(Cc3cnc(N)nc3N)cc2OC)cc1 [GW2580] (first compound 10 µM, partner dose 5 µM) showed a cell count of 93.9%. Next, `NC1(c2ccc(-c3nc4ccn5c(=O)[nH]nc5c4cc3-c3ccccc3)cc2)CCC1` + O=C(O)c1ccc(-c2c[nH]c3ncc(-c4ccccc4)cc23)cc1C1CCCC1 [GSK650394] (first compound 2 µM, partner dose 0.8 µM): 109%; `CCCS(=O)(=O)Nc1ccc(F)c(C(=O)c2c[nH]c3ncc(Cl)cc23)c1F` + Cc1nc(Nc2ncc(C(=O)Nc3c(C)cccc3Cl)s2)cc(N2CCN(CCO)CC2)n1 [dasatanib] (first compound 0.4 µM, partner dose 0.02 µM): 97.3%.

(Values after the supplement of paper PMC4604168 (melanoma cell lines).)
